Experimental data from the supplement of paper PMC10441789.
The other results are listed elsewhere or left out. Antibody binding of pooled human sera (four to six donors per pool; dilution not stated) to peptides of the Trypanosoma cruzi antigen TSSA on microarrays. Quantile-normalised fluorescence in arbitrary units, mean of duplicate arrays; higher = more binding. No active / inactive call. The uninfected pools are read here as the healthy donors of the same country. The strongest signals lie near the top of the scale (about 60,000).

test system: pooled sera of chronic Chagas disease patients, Argentina; assay: antibody binding signal (normalised fluorescence) (arbitrary fluorescence units); higher = stronger serum antibody binding to peptide
Protocol: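 Microarray of 15-residue peptides over residues 30-55 of Trypanosoma cruzi TSSAII, each with 1 to 10 substitutions at naturally variable positions, probed with one serum pool per country.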

Sequence | antibody binding signal
PSGKDKKPAAGGTPS | 5490
KENKAATGETPSQSG | 3840
GKDNKAATGEAPSQS | 31900
TDNKPATGGTPSPPG | 926
PPSGKENKAAAGEAP | 6410
SGTENKTAAGGAPSQ | 30200
GTENKAAAGETPSQS | 39000
GTENKTATGGAPSPP | 25800
TDNKPAAGEAPSPPG | 3100
KDNKAATGETPSPSG | 2620
TEKKPAAGGTPSPSG | 1720
GTEKKPATGEAPSQS | 47200
TISTPPSGTDKKPAA | 39400
GTEKKAATGGAPSPS | 2790
EKKAAAGETPSPSGA | 1830
KEKKPAAGEAPSPSG | 199
GTDKKPAAGETPSQS | 419
TDKKTATGGTPSPSG | 827
PPSGKDNKAATGETP | 3760
GKDNKPATGGTPSPS | 1340

Sequence | antibody binding signal
KEKKPAAGGTPSQPG | 183
KDKKPATGGAPSPPG | 444
EKKPAAGGTPSPSGA | 546
GTDNKAATGEAPSPP | 27300
GKDKKPAAGEAPSQP | 2790
SGKDKKPAAGGTPSP | 607
PPSGKDKKPAAGGAP | 805
GTENKPATGGTPSPP | 44100
TISTPPSGKDNKPAA | 18300
DKKTAAGEAPSQSGA | 661
GTDNKTAAGGTPSPP | 1250
SGKDKKAAAGETPSP | 637
PPSGKENKPAAGETP | 10300
SGTDKKTAAGGTPSQ | 1450
GKDNKPAAGGTPSPP | 331
DNKTAAGETPSPPGA | 310
SGTDKKAATGGTPSP | 1060
GKDNKTATGGAPSPS | 1700
STPPSGKENKTATGG | 39100
PPSGTDKKTATGGAP | 7530
